One test has as its system Spodoptera littoralis. Put plainly: Example B8: activity against Spodoptera littoralis, sprayed soya plants. The following applies: 72 h, read-out: percentage reduction in the population and in the feeding damage (% activity).
The test system of another test is Plutella xylostella. Put plainly: Example B7: activity against Plutella xylostella, sprayed cabbage plants. The following applies: in Brassica oleracea, 72 h, read-out: percentage reduction in the population and in the feeding damage (% activity).

Take `Cc1cc(Cl)cc(C(=O)NCC2CCO2)c1NC(=O)c1cc(C(F)(F)F)nn1-c1ncccc1Cl` (stereo not shown) [Compound P25, N-(4-chloro-2-methyl-6-[([oxetan-2-ylmethyl]amino)carbonyl]phenyl)-1-(3-chloro-2-pyridinyl)-3-(trifluoromethyl)-1H-pyrazole-5-carboxamide]: the inhibition at 400 ppm with Spodoptera littoralis and in the test on Plutella xylostella was more than 80% in each case.
Turning to `Cc1cccc(C(=O)NCC2CC2)c1NC(=O)c1cc(C(F)(F)F)nn1-c1ncccc1Cl` [Compound P41], the inhibition at 400 ppm in the test on Spodoptera littoralis and in the test with Plutella xylostella was more than 80% each time.

These data come from patent US8106075B2, “Insecticides” (Syngenta Crop Protection, Inc., priority 2004, dated 2012).
